The other results are listed elsewhere or left out.

Experimental findings from article PMC12136788 are described below.

The labels stand for the following.
T1: UNK ZnF1-3 (human, UniProt Q9C0B0 31-174)
T1 sequence: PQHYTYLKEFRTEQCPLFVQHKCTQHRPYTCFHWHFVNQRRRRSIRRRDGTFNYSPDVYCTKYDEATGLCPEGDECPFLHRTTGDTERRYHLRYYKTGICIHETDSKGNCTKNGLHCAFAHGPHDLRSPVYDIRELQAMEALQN

B1: 219525671_219525791_158_CDS_ENSG00000074582_ENST00000359273|human|control|control (ssRNA)
RNA: GGGAGUUCUACAGUCCGACGAUCUGUGCCCACACCCACCAGCCCAAAUCCAGCCCCAAAGUAGGGAUUGUCCUUCAGAGCCAGAAUAAAGUCUGAAAGUGGCAUCUUGAAAGGGAAACACCAAACCUUACAGGCCCUGGGGUGCAACAGAGGAUUGAGCAUCA
B2: chr12:39752152:39752153:-_ENSG00000139116_ENST00000544797|hu_hu|motif|central (ssRNA)
RNA: GGGAGUUCUACAGUCCGACGAUCGUAUUUCAGGGUGUUUAACGUUUCCAUAAAGUCUCUGUCUGAAGGGCUGACACAUGCGGUCAUGAUUGUUUGGCUAUUACCCCCGAGGGAAUCCUGUAGUAGUCUUGUUAGCUUGGAAUCCAACAGAGGAUUGAGCAUCA
B3: chr4:33586012:33586013:+_ENSMUSG00000028274_ENSMUST00000108153|mus_mus|FALSE|FALSE (ssRNA)
RNA: GGGAGUUCUACAGUCCGACGAUCCGAGAUGCUAUUGCACACAGCCAUGGCUGUGUUGUAGGCAUUUGGGAAACUUUUGUCUAUCCUCUGUCUCAUGAAGACCCAGCUAUUGUUCUCAAAUUUGCAUUCUAUAAUUUUGUUGUCCAACAGAGGAUUGAGCAUCA
B4: chr6:114281168:114281169:-_ENSG00000196591_ENST00000368632|hu_hu|hu_hu_hu_mus_True|1_108 (ssRNA)
RNA: GGGAGUUCUACAGUCCGACGAUCUUCCAUUUUUCUGUAUAAACCAUAAUUUAGCAGCAAGUUAUGAGUCAUCCGGAUUCUAUGAGGCUUCAUGGGAUGACCCUGGCCAUAAUAAUAAUUGCCAAUAUCACCAUCAUACUAGAACAACAGAGGAUUGAGCAUCA
B5: 5257761_5264598_1355_CDS_ENSG00000029725_ENST00000262477|human|control|control (ssRNA)
RNA: GGGAGUUCUACAGUCCGACGAUCCAUGUCAUUGUCCGAUUUACUGAAAGGAUCUCCAGAUGGCAACAGCAAGCCUGCAUCUAAGGAAUGAACUGAGCCACGGGUGCUGUCUAAAUGCUCCUCUUCAUUUGAUAACUGGGCUGACAACAGAGGAUUGAGCAUCA
B6: 54679947_54680067_123_3pUTR_ENSMUSG00000020267_ENSMUST00000020504|mouse|control|control (ssRNA)
RNA: GGGAGUUCUACAGUCCGACGAUCCUUUGCGGAUGAUCUUGCCGAAGAUCGUGUCGCCGCCGGGCUGGGCCACUUGAGCCUUGGCAAUCUCGUCAGCCAUCGCGGCCGCUCACUGUCCUUCCCGCGCCGCGGCCACAGUGGGGACAACAGAGGAUUGAGCAUCA
B7: chr14:31074762:31074763:+_ENSG00000092140_ENST00000206595|hu_hu|motif|central (ssRNA)
RNA: GGGAGUUCUACAGUCCGACGAUCCCAGAUAUUGGCUUUGUUGAUAUACAAUCUUUUAGUUUUUUUUUUAAUUUGGAAUCCGGACUCGGUUAAUAGUGUUGAUACAUUUCUUCUAAAUUUGCUGCCUUGCCUCAGUAGAUCUUUCAACAGAGGAUUGAGCAUCA
B8: chr4:148551591:148551592:-_ENSMUSG00000063077_ENSMUST00000060537|mus_hu|mus_mus_mus_hu_False|68_78 (ssRNA)
RNA: GGGAGUUCUACAGUCCGACGAUCACCUGACAAAAUUAAAUAUCCCUGUAAAUUAGACAAGAAGCAGCAGGUAACAAAGUCUUUGCUUUGGAAUAUGUGCCAGGAAAAGUCAUCUUGUUUUUAGAUCUCAAGAGACAGUUCACACAACAGAGGAUUGAGCAUCA
B9: 162081223_162087567_785_CDS_ENSG00000136560_ENST00000392749|human|control|control (ssRNA)
RNA: GGGAGUUCUACAGUCCGACGAUCUAUAUCAUCUUUAGCCUGAGGCUUAAACAGCGCUUCUUGUUUAUCUGUUUUAUCCGUACACUGUAUAGGCACAGAGCACUGUGUUUCAGUUGCAGUGUCUGGUAUAUUAAGUUUGCUUAACAACAGAGGAUUGAGCAUCA
B10: 47486407_47486699_519_3pUTR_ENSG00000167085_ENST00000300408|human|control|control (ssRNA)
RNA: GGGAGUUCUACAGUCCGACGAUCGACACGUCAUCCAGGAUGAGCCCAAAGGUGGCGGCUCGCUCUGUAAGGUCGUCGCUCACCUGCCUGGAGACCAGCUCUCUCUGGGUGAUUAGUUCUCCAGCAUCAAAGCGAGCCACCACUCAACAGAGGAUUGAGCAUCA
B11: chr6:91700303:91700304:+_ENSMUSG00000030096_ENSMUST00000032185|mus_mus|FALSE|FALSE (ssRNA)
RNA: GGGAGUUCUACAGUCCGACGAUCAAGAGCUGGAGUGAUGACAGCCCAGCUGUACUUCAUCCAGGGCCCAGGCCGAUAGCCAAUCAUGUCCUCAAUACCGUCAUAUAAGUUAUCACCGCCAUAUAUCCAGGCAAUAACAAAACACAACAGAGGAUUGAGCAUCA
B12: chr9:58049150:58049151:-_ENSMUSG00000051243_ENSMUST00000114144|mus_hu|FALSE|FALSE (ssRNA)
RNA: GGGAGUUCUACAGUCCGACGAUCUCCUGGGGCUGAAACCCCUUCUCCAGACCCGGCGUGGCAGAGCAGGGAAGAUAGCCCAAGCAAGAUACACGCAUGUGUUGUGGCCUCACGCGCCUGUCCCGCCAGCGCCCGCGAGCUUCGCAACAGAGGAUUGAGCAUCA
B13: chrX:71549400:71549401:+_ENSMUSG00000019087_ENSMUST00000019231|mus_hu|mus_mus_mus_hu_False|38_68 (ssRNA)
RNA: GGGAGUUCUACAGUCCGACGAUCGCAGUAGGAAGAGGGAAGCUCUUCAGUCCAGUGCGCUGCAGGGAGAAACAUGAACAACACGGACACCGUCCCACCUCAAUUCCCCCCACUGGCACAGGGUCACACAAUCUGGGUCAAAGACAACAGAGGAUUGAGCAUCA
B14: chr8:27591085:27591086:-_ENSG00000147419_ENST00000356537|hu_hu|motif|central (ssRNA)
RNA: GGGAGUUCUACAGUCCGACGAUCUGGAUGUGAGCUUGCUCUGGCAGCAGCAGUGCUGUCCUUGUUUCUGAGCUGCCACCGGUUCACUGGAGUUAGGUGGGUCAAAGCUGAAAUUUAGCUUGGAAUUUAAGUUUCUAAUUUUAUCAACAGAGGAUUGAGCAUCA
B15: chr9:88635815:88635816:+_ENSG00000135040_ENST00000361671|hu_hu|motif|central (ssRNA)
RNA: GGGAGUUCUACAGUCCGACGAUCUCCUCCUGCCAAUAACUUCAUAACCACAAAGUUGGGUUUGGCAACCUUUAAAAUUCGGUUAACCUCAUGGUCCGGGUUAGGAAUAUUUUCCAAUAUCAUUUUUGCCUGUUGAAAGUGCUUCAACAGAGGAUUGAGCAUCA
B16: chr7:23387248:23387249:-_ENSG00000136231_ENST00000258729|hu_hu|FALSE|FALSE (ssRNA)
RNA: GGGAGUUCUACAGUCCGACGAUCAAUCUUCAAGGGGAUCUCUUCUGUGAAUUUUAUAUCUUGAGCUUCCUUAUGCAUAAUCUCCAGAAUAGACUUACAAGCCGCAGAGGUGCCUUCAGGAGUAGAGAGGAUAGUAAUCGACUUCAACAGAGGAUUGAGCAUCA
B17: chr11:100581416:100581417:-_ENSMUSG00000019173_ENSMUST00000107364|mus_mus|motif|central (ssRNA)
RNA: GGGAGUUCUACAGUCCGACGAUCCCCGCCAUGGCGCGCUGCUCUGUAGUAGUACCAGUGAGCGUGGGGGUGGGGCCGGUGCGGUGCAAAGAGGCACUUAAUGGGAAGGGAGGCCUCCAACGCGGCUCCGGGCAGCAGCGUUACCAACAGAGGAUUGAGCAUCA
B18: chr6:142724167:142724168:+_ENSMUSG00000030282_ENSMUST00000032419|mus_hu|FALSE|FALSE (ssRNA)
RNA: GGGAGUUCUACAGUCCGACGAUCUACACACUGUCCCCAGAUAAAUAAAAUCCCAACAUCUUUGAAAGCACACAAACACACAGUUUUACAGGGUACAAUACAAAGUGAACUUUGAUGAUGUUCUUACUUGCAUUUACUAAAAAUCAACAGAGGAUUGAGCAUCA
B19: chr11:97022710:97022711:-_ENSMUSG00000001440_ENSMUST00000001479|mus_hu|FALSE|FALSE (ssRNA)
RNA: GGGAGUUCUACAGUCCGACGAUCACACUUCUAAAAAAAUAUUCAAGUGUGUGACCAGGGGACGUUUGACACCAUUUUAUUAACCUUCAACUUCAGUGGAAAAAUAAAACCUUUUCCAAGUGCCAUUUUCAUCACAAGACUUCUCAACAGAGGAUUGAGCAUCA
B20: chr19:5156467:5156468:-_ENSMUSG00000024855_ENSMUST00000025786|mus_mus|motif|central (ssRNA)
RNA: GGGAGUUCUACAGUCCGACGAUCUUUUAUUUCUGCCACUGGCACAGAGACAUCCUUCACAUUGCUGUGCAGGCCAAGUACGGAAGCGCCCUCAUUAGGGUGUUGCAUCACCUCUGCCAUGUUGAUGAGUCCCACAGCUAAGGUCAACAGAGGAUUGAGCAUCA
B21: 52862007_52862127_5684_CDS_ENSMUSG00000035247_ENSMUST00000042052|mouse|control|control (ssRNA)
RNA: GGGAGUUCUACAGUCCGACGAUCAGGAAUUUCUAGGUCAGUUGUCUGCUGGACAUUGGUACGACCAGGUCUAGGAUCAAAAGCAGGGACCAGUGCAGAAAACUGGCGCUUUAGCACAUAGUCGUCAUCCCAGGCUCUGCGGCGCAACAGAGGAUUGAGCAUCA
B22: chr1:52222005:52222006:-_ENSMUSG00000026103_ENSMUST00000114513|mus_mus|motif|central (ssRNA)
RNA: GGGAGUUCUACAGUCCGACGAUCACCAACAGUUAGGCAGUAGAGGAAGAGAAGAUACUCAGGGCCUCCCACAAAGGGGUGCGGUCUUGAUGCAGACAUUUGACAGCAGGAUUCAAAGUAAGUGUUAUUUGUAGCUUUUCCUAACAACAGAGGAUUGAGCAUCA

In the assay the target is T1, UNK ZnF1-3. Kind of assay: nsRBNS (natural sequence RNA bind-n-seq); RBNS binding buffer (assumed for nsRBNS): 25 mM Tris pH 7.5, 150 mM KCl, 3 mM MgCl2, 0.01% Triton X-100, 500 ug/ml BSA, 20 U/ml SUPERase-In, 4 C; UNK is unkempt and MSI1 is Musashi-1; names of the RNAs are library labels; protein concentration not given here; high values mean tight binding.
B1 had a binding signal of 1.32 enrichment R.
The molecule B2 displayed a binding signal of 0.641 enrichment R.
The molecule B3 had a binding signal of 0.518 enrichment R.
Molecule B4 showed a binding signal of 0.896 enrichment R.
Then B5, with 1.2 enrichment R; and B6, with 0.437 enrichment R.
The molecule B7 returned a binding signal of 0.882 enrichment R.
To B8 belongs 1.34 enrichment R; to B9, 0.37 enrichment R.
Take B10: the binding signal was 0.373 enrichment R.
Then B11, with 0.84 enrichment R.
The molecule B12 came in with a binding signal of 0.667 enrichment R.
Regarding B13, the binding signal is 1.17 enrichment R.
The molecule B14 showed a binding signal of 0.671 enrichment R.
Then B15, with 0.992 enrichment R; and B16, with 1.09 enrichment R.
In turn, B17 displayed a binding signal of 1.28 enrichment R.
The molecule B18 displayed a binding signal of 1.43 enrichment R.
Then B19, with 1.05 enrichment R; and B20, with 0.826 enrichment R; and B21, with 0.911 enrichment R.
With B22, the binding signal was 1.16 enrichment R.
